Experimental data published in the supplement of paper PMC8728848.
Some of the results follow.

Key:
Assay in all cases: glycan array binding signal (z-score within array); higher = stronger binding
Settings in all cases: glycan notation: IUPAC condensed, linker removed
[1] = target: Neu5Ac(a2-3)Gal(b1-4)GlcNAc(b1-2)[Neu5Ac(a2-3)Gal(b1-4)GlcNAc(b1-4)]Man(a1-3)[GlcNAc(b1-4)][Neu5Ac(a2-3)Gal(b1-4)GlcNAc(b1-4)Man(a1-6)]Man(b1-4)GlcNAc(b1-4)GlcNAc
Procedure, shortened: (§1)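 Glycan array data were curated from 3228 arrays in the Consortium for Functional Glycomics database and kept only where the protein sequence was available. Glycan names were converted to IUPAC-condensed notation, and columns mapping to the same glycan were averaged. The binding signal is a within-array Z-score, averaged across arrays of the same protein sequence at different concentrations or buffers and across linkers. Negative Z-scores can be read as non-binding.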

[2] = target: Neu5Ac(a2-3)Gal(b1-4)GlcNAc(b1-2)[Neu5Ac(a2-3)Gal(b1-4)GlcNAc(b1-6)]Man(a1-6)[Neu5Ac(a2-3)Gal(b1-4)GlcNAc(b1-2)Man(a1-3)]Man(b1-4)GlcNAc(b1-4)GlcNAc
Procedure, shortened: as §1

[3] = target: Neu5Ac(a2-3)Gal(b1-4)GlcNAc(b1-2)[Neu5Ac(a2-3)Gal(b1-4)GlcNAc(b1-6)]Man(a1-6)[Neu5Ac(a2-3)Gal(b1-4)GlcNAc(b1-2)Man(a1-3)][GlcNAc(b1-4)]Man(b1-4)GlcNAc(b1-4)GlcNAc
Procedure, shortened: as §1

[4] = target: Neu5Ac(a2-3)Gal(b1-4)GlcNAc(b1-3)Gal
Procedure, shortened: as §1

[5] = target: Neu5Ac(a2-3)Gal(b1-4)GlcNAc(b1-3)Gal(b1-3)GlcNAc
Procedure, shortened: as §1

[6] = target: Neu5Ac(a2-3)Gal(b1-4)GlcNAc(b1-3)Gal(b1-4)GlcNAc
Procedure, shortened: as §1

[7] = target: Neu5Ac(a2-3)Gal(b1-4)GlcNAc(b1-3)Gal(b1-4)GlcNAc(b1-2)Man(a1-3)[Neu5Ac(a2-3)Gal(b1-4)GlcNAc(b1-3)Gal(b1-4)GlcNAc(b1-2)Man(a1-6)]Man(b1-4)GlcNAc(b1-4)GlcNAc
Procedure, shortened: as §1

[8] = target: Neu5Ac(a2-3)Gal(b1-4)GlcNAc(b1-3)Gal(b1-4)GlcNAc(b1-3)Gal(b1-4)GlcNAc
Procedure, shortened: as §1

[9] = target: Neu5Ac(a2-3)Gal(b1-4)GlcNAc(b1-3)Gal(b1-4)GlcNAc(b1-3)Gal(b1-4)GlcNAc(b1-2)Man(a1-3)[Neu5Ac(a2-3)Gal(b1-4)GlcNAc(b1-3)Gal(b1-4)GlcNAc(b1-3)Gal(b1-4)GlcNAc(b1-2)Man(a1-6)]GalNAc
Procedure, shortened: as §1

[10] = target: Neu5Ac(a2-3)Gal(b1-4)GlcNAc(b1-3)Gal(b1-4)GlcNAc(b1-3)GalNAc
Procedure, shortened: as §1

[11] = target: Neu5Ac(a2-3)Gal(b1-4)GlcNAc(b1-3)Gal(b1-4)GlcNAc(b1-3)[Neu5Ac(a2-3)Gal(b1-4)GlcNAc(b1-3)Gal(b1-4)GlcNAc(b1-6)]GalNAc
Procedure, shortened: as §1

[12] = target: Neu5Ac(a2-3)Gal(b1-4)GlcNAc(b1-3)Gal(b1-4)GlcNAc(b1-6)[Gal(b1-3)]GalNAc
Procedure, shortened: as §1

[13] = target: Neu5Ac(a2-3)Gal(b1-4)GlcNAc(b1-3)Gal(b1-4)[Fuc(a1-3)]GlcNAc
Procedure, shortened: as §1

[14] = target: Neu5Ac(a2-3)Gal(b1-4)GlcNAc(b1-3)GalNAc
Procedure, shortened: as §1

[15] = target: Neu5Ac(a2-3)Gal(b1-4)GlcNAc(b1-3)[Neu5Ac(a2-3)Gal(b1-4)GlcNAc(b1-6)]GalNAc
Procedure, shortened: as §1

[16] = target: Neu5Ac(a2-3)Gal(b1-4)GlcNAc(b1-6)GalNAc
Procedure, shortened: as §1

[17] = target: Neu5Ac(a2-3)Gal(b1-4)GlcNAc(b1-6)[Gal(b1-3)]GalNAc
Procedure, shortened: as §1

[18] = target: Neu5Ac(a2-3)Gal(b1-4)GlcNAc(b1-6)[Neu5Ac(a2-3)Gal(b1-3)]GalNAc
Procedure, shortened: as §1

[19] = target: Neu5Ac(a2-3)Gal(b1-4)GlcNAc6S
Procedure, shortened: as §1

[20] = target: Neu5Ac(a2-3)Gal(b1-4)[Fuc(a1-3)]GlcNAc
Procedure, shortened: as §1

[21] = target: Neu5Ac(a2-3)Gal(b1-4)[Fuc(a1-3)]GlcNAc(b1-2)Man
Procedure, shortened: as §1

[22] = target: Neu5Ac(a2-3)Gal(b1-4)[Fuc(a1-3)]GlcNAc(b1-3)Gal
Procedure, shortened: as §1

[23] = target: Neu5Ac(a2-3)Gal(b1-4)[Fuc(a1-3)]GlcNAc(b1-3)Gal(b1-4)GlcNAc
Procedure, shortened: as §1

[24] = target: Neu5Ac(a2-3)Gal(b1-4)[Fuc(a1-3)]GlcNAc(b1-3)Gal(b1-4)[Fuc(a1-3)]GlcNAc(b1-3)Gal(b1-4)[Fuc(a1-3)]GlcNAc
Procedure, shortened: as §1

[25] = target: Neu5Ac(a2-3)Gal(b1-4)[Fuc(a1-3)]GlcNAc(b1-3)GalNAc
Procedure, shortened: as §1

[26] = target: Neu5Ac(a2-3)Gal(b1-4)[Fuc(a1-3)]GlcNAc(b1-6)[Gal(b1-3)]GalNAc
Procedure, shortened: as §1

[27] = target: Neu5Ac(a2-3)Gal(b1-4)[Fuc(a1-3)]GlcNAc(b1-6)[Neu5Ac(a2-3)Gal(b1-3)]GalNAc
Procedure, shortened: as §1

[28] = target: Neu5Ac(a2-3)Gal(b1-4)[Fuc(a1-3)]GlcNAc6S
Procedure, shortened: as §1

[29] = target: Neu5Ac(a2-3)Gal6S(b1-4)GlcNAc
Procedure, shortened: as §1

[30] = target: Neu5Ac(a2-3)Gal6S(b1-4)[Fuc(a1-3)]GlcNAc
Procedure, shortened: as §1

Neu5Ac(a2-3)GalNAc = target: Neu5Ac(a2-3)GalNAc
Procedure, shortened: as §1

[31] = target: Neu5Ac(a2-3)GalNAc(b1-4)GlcNAc
Procedure, shortened: as §1

[32] = target: Neu5Ac(a2-3)[GalNAc(b1-4)]Gal(b1-4)Glc
Procedure, shortened: as §1

[33] = target: Neu5Ac(a2-3)[GalNAc(b1-4)]Gal(b1-4)GlcNAc
Procedure, shortened: as §1

[34] = target: Neu5Ac(a2-3)[GalNAc(b1-4)]Gal(b1-4)GlcNAc(b1-3)GalNAc
Procedure, shortened: as §1

[35] = target: Neu5Ac(a2-3)[Neu5Ac(a2-6)]GalNAc
Procedure, shortened: as §1

Neu5Ac(a2-6)Gal = target: Neu5Ac(a2-6)Gal
Procedure, shortened: as §1

B1: PX14367B-bvu-516-23-516 (Bacteroides vulgatus) (protein)
chain: LDTIPTTYVDAGSVFGKTGDAEKVLNGGWNYLMETFNSYANPGYGAMLRANDAMGSDVVLNSKYGFRTHNEFSAIYGKGGTNTLSWLLAYRVINDCNGVLDNIDAAEGTQADRNRIKGQALALRGFLYLHLASCYSFAIDKDPDAVCAPIYTQSTDETIAAEGKPASSVSEVYAQSINDLEEALELIPETYVRDAKHKIDNEVVLGILSRACLYARQWEKAKTYSDKLLAKDNYLMTESEYKAGFNSVDNKEWIWGHAQTNDQSNASYQFHYLDTTTKGSYYYSFNVDPYFRDLFEDGDYRKEMLFWATDPGADVESAAYVWMRNSKFRFRDIENQLGDIVLMRVAEIYLINAEAKAHLNDPDAINKLNDLKTARGAKTIHTNLSQQDLLETIWLERRKELWGEGFSLIDIIRNQQTVVRNAYPEGPIDYIYTDENGQTHTLKKKTQGHRFFNFPDKSAFCPNSKYYLYRITDSEELANKNLYKDHPKLSIYTK
For B1, the “glycan array binding signal (z-score)” value [1] was -0.262, the “glycan array binding signal (z-score)” value [2] was -0.158 and the “glycan array binding signal (z-score)” value [3] was -0.317. For the same binder, the “glycan array binding signal (z-score)” value [4] was -0.264, the “glycan array binding signal (z-score)” value [5] was -0.328 and the “glycan array binding signal (z-score)” value [6] was -0.204. The “glycan array binding signal (z-score)” value [7] was -0.164, the “glycan array binding signal (z-score)” value [8] was -0.354 and the “glycan array binding signal (z-score)” value [9] was -0.07. For the same binder, the “glycan array binding signal (z-score)” value [10] was -0.343, the “glycan array binding signal (z-score)” value [11] was -0.296 and the “glycan array binding signal (z-score)” value [12] was -0.3. The “glycan array binding signal (z-score)” value [13] was -0.347, the “glycan array binding signal (z-score)” value [14] was -0.298 and the “glycan array binding signal (z-score)” value [15] was -0.326. The “glycan array binding signal (z-score)” value [16] was -0.227, the “glycan array binding signal (z-score)” value [17] was -0.123 and the “glycan array binding signal (z-score)” value [18] was -0.354. For the same binder, the “glycan array binding signal (z-score)” value [19] was -0.075, the “glycan array binding signal (z-score)” value [20] was -0.289 and the “glycan array binding signal (z-score)” value [21] was -0.317. For the same binder, the “glycan array binding signal (z-score)” value [22] was -0.388, the “glycan array binding signal (z-score)” value [23] was -0.019 and the “glycan array binding signal (z-score)” value [24] was -0.281. For the same binder, the “glycan array binding signal (z-score)” value [25] was 0.014, the “glycan array binding signal (z-score)” value [26] was 1.17 and the “glycan array binding signal (z-score)” value [27] was 0.034. For the same binder, the “glycan array binding signal (z-score)” value [28] was -0.354, the “glycan array binding signal (z-score)” value [29] was -0.101 and the “glycan array binding signal (z-score)” value [30] was -0.307. For the same binder, the “glycan array binding signal (z-score)” value (Neu5Ac(a2-3)GalNAc) was -0.319, the “glycan array binding signal (z-score)” value [31] was -0.341 and the “glycan array binding signal (z-score)” value [32] was 0.265. For the same binder, the “glycan array binding signal (z-score)” value [33] was -0.356, the “glycan array binding signal (z-score)” value [34] was -0.226 and the “glycan array binding signal (z-score)” value [35] was -0.309. For the same binder, the “glycan array binding signal (z-score)” value (Neu5Ac(a2-6)Gal) was 0.065.
